± gives the standard deviation of the averaged measurements. The list shows a part of the results.
system: PfAP2-EXP AP2 domain (GST-tagged); assay: gcPBM binding intensity (ln(normalized median fluorescence intensity)); higher = stronger DNA binding
Procedure, shortened: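 Plasmodium falciparum DNA-binding domains carrying a GST tag were expressed in E. coli and applied for 1 h, at about 25 μg on average, to an Agilent 4 × 180k array. The array held primer-extended double-stranded 36-bp intergenic genomic probes together with negative controls, and binding took place in 1× PBS with 1% milk, 0.2 mg/ml BSA, 0.5% salmon testes DNA and 0.03% Triton X-100. An Alexa488 anti-GST antibody detected bound protein, and the array was scanned at 488 nm. Binding intensity is taken as the highest Masliner-normalised natural-log median intensity across replicate spots of either probe orientation.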

Row | Sequence | gcPBM binding intensity (ln)
1 | TCCTCTTATAATTCGTGTCCACATATATCATACAAT [XGTACX_site1523] | 8.9 ± 0.45
2 | TACGGATATATATATTGTACATATATATAATATATA [XGTACX_site3156] | 8.38 ± 0.29
3 | AGAAAAAAATAATGTACACACACATAGATGTTTATA [CACACA_site4271] | 8.33 ± 0.34
4 | TCAATAATAACAAATGAACACACATATATATGAGCA [CACACA_site8663] | 8.66 ± 0.44
5 | AAAAAAAAAAAAAAAAGTACACAGTAGAATTAAATG [XGTACX_site1843] | 8.76 ± 0.4
6 | ATAAGTAAATTAGATACACACATGATATCATACATA [CACACA_site1623] | 8.53 ± 0.47
7 | GAACAATAAATAAAAAAAATAAAAATAAAAATAAAA [TGCATGCA_negctrl_site35] | 8.33 ± 0.55
8 | TTTTTTTTTTAATTAACACACATAAATATATATATA [CACACA_site3275] | 9.31 ± 0.13
9 | ATAAATTTTTTTTTTTTTTTTTTTCTTTTTCTTTGT [CACACA_negctrl_site1231] | 8.14 ± 0.54
10 | ACTAAAGTGTATCACTGTACAATTCTTCTCTTTTTT [XGTACX_site8705] | 8.71 ± 0.35
11 | ACGTAATTAATTCATCAGATATAATTAATAATAATA [XGTACX_negctrl_site550] | 8.29 ± 0.42
12 | AATATATTTGTGTATGTGCGCAGTGTGTAATTTATT [GTGCAC_site9765] | 9.05 ± 0.41
13 | CATCTCATATTTTGAAGTACTAAGAAAAGATATAAA [XGTACX_site6867] | 8.61 ± 0.42
14 | TTTTCTTGACCTATTATTCTTCTCATAGTATAATAT [GTGCAC_negctrl_site641] | 8.61 ± 0.45
15 | TAATATGCATAAAATTGTACAAACTTACATATAATA [XGTACX_site2752] | 8.68 ± 0.49
16 | TTTTTTATAGGACATGCATGTTGTAGAGCTGTATAT [TGCATGCA_site704] | 9.48 ± 0.48
17 | TTCATAGAATTATATATTTTAAAAAAAAAAATAATT [CACACA_negctrl_site175] | 7.88 ± 0.46
18 | ATTCATTTACCAATGGTGCAATATATTTTTATAATG | 8.79 ± 0.13
19 | TGTCAAAATATGTATACACACAATTTTTTTTTTTTT [CACACA_site2465] | 8.54 ± 0.53

Row | Sequence | gcPBM binding intensity (ln)
20 | TTTTTCATAAGAAGCACACAAAAAATGATAGAGAAT [CACACA_site1417] | 9.1 ± 0.52
21 | TATATTACTTATATTTGTACACAGAAATATAAATCA [XGTACX_site13] | 8.38 ± 0.33
22 | TAATAAATAAAATAGAGTACAGGGATTTCATTAAAT [XGTACX_site8979] | 8.65 ± 0.4
23 | TGAAATACGAATTATTGTACTTATGTGTAAGATGGC [XGTACX_site4472] | 8.73 ± 0.38
24 | AAAAAAAAAATATATTGTACAAATAGATATGTCAAT [XGTACX_site122] | 8.76 ± 0.33
25 | AAAGAAAGTACCTTCACACATATAAGAATATAATAT [CACACA_site5214] | 8.6 ± 0.52
26 | TTATTTTTTTTGTGTTGTACAATTTATTACTACTAA [XGTACX_site346] | 8.82 ± 0.31
27 | AATATATTTTAATATACACACATATATGCTCTTTAA [CACACA_site9371] | 8.29 ± 0.35
28 | GTATTTATAATACGGCGTACATAAAAAAAAAAAAAA [XGTACX_site3705] | 8.51 ± 0.49
29 | TTATTTATGTGTAGGGCATGCAATCGTGTTTTTAAA [TGCATGCA_site735] | 9.23 ± 0.41
30 | AAACAAATATGTAGCACACATTCACATAATATATTT [CACACA_site2335] | 8.77 ± 0.35
31 | CAAAAAGATAAGGTGTGTACGTATTATAATTTTAAA [XGTACX_site531] | 9.07 ± 0.89
32 | TGAAATGATCTTTAGTTGCACTTAAAAATATATATA | 8.52 ± 0.2
33 | ATTTAATTTTCCAAATGTACTTATATTTTTATGAAA [XGTACX_site6144] | 8.59 ± 0.4
34 | TAGATACATAAACACACACACACATACATATATACA [CACACA_site9139] | 8.68 ± 0.6
35 | GGTATATAAAAATATTGTACTTAAAAAAATATGTAT [XGTACX_site6253] | 8.48 ± 0.35
36 | TATTTCACTTTTTGTCTGCACTAAAATTTTATGGTA | 8.94 ± 0.35
37 | AAGTATAGTCTTACATATATATATATATATATATAT [GTGCAC_negctrl_site280] | 10.1 ± 0.54
38 | TTTTGACTAATATAATATGTTAAGAATTAATAAATA [XGTACX_negctrl_site35] | 8.05 ± 0.45

Row | Sequence | gcPBM binding intensity (ln)
39 | AAAAAAAAAAAAAACACACACATATATATAATATAT [CACACA_site3172] | 8.41 ± 0.54
40 | AGTATACTCAAACACACACACACAAAAAAAAAAAAA [CACACA_site4398] | 8.52 ± 0.42
41 | TAAGAAATAAATAGTACACACATAGACACCCACCGA [CACACA_site1516] | 9.12 ± 0.39
42 | ACAATATTATTATTTAACCATACACAATTATATGTC [XGTACX_negctrl_site378] | 8.32 ± 0.36
43 | CAGTTTAATTTACATAGTACATAATATTTTAATTTT [XGTACX_site1793] | 8.19 ± 0.3
44 | GTAATATTAATATAATGTACAAAATGAAACATATAT [XGTACX_site6219] | 8.66 ± 0.41
45 | ATTAATTATGTATTTCAACAAAGAAGTGTTATATAT [GTGCAC_negctrl_site215] | 8.49 ± 0.35
46 | ATTATACCGTATTTTGCATGTAGTATTTTCATTTTA [TGCATGCA_site1021] | 9.43 ± 0.3
47 | ATTATTTGTAATATAACACACACAAAAAAAGACTCG [CACACA_site8487] | 8.63 ± 0.52
48 | TCTTTATCCTTTCTCTTTTTATTAATTATAATATTC [TGCATGCA_negctrl_site584] | 8.95 ± 0.38
49 | TATCATTTATATATGTGTACTTATTTATTTATTTAT [XGTACX_site7961] | 8.82 ± 0.45
50 | AAGGAAAATATTAACTGTACATATAAAATATATATA [XGTACX_site5310] | 8.48 ± 0.23
51 | AAATGTACAGGACGCACACACATATATATATATATA [CACACA_site3674] | 10.4 ± 0.81
52 | ATATATACCTAAGACACACACATATATATATATATA [CACACA_site764] | 10.1 ± 0.52
53 | AATGAATCCTTATATACACACATTATTATAGTATAG [CACACA_site7454] | 8.53 ± 0.41
54 | ATTTATATATATTTATGTACGTATTAATTTTTTTTT [XGTACX_site3877] | 8.77 ± 0.45
55 | AAAGAAAATTAAAAAGAACACACAAATATATATATA [CACACA_site9196] | 9.82 ± 0.29
56 | AATAATCATGATCATAGTACGTATGAATACAAAAAA [XGTACX_site265] | 8.67 ± 0.44
57 | ATAAAACAAAGACACACACACATACACAAAAAAAAA [CACACA_site7752] | 8.55 ± 0.67
